Source: PubChem BioAssay (NCATS)
The shares of active, inactive and inconclusive entries below differ from those in the screen. Potencies of inconclusive entries are doubtful fits and often do not repeat. Activity calls are given as the source filed them. The call rests on the fitted dose curve; in most records, active means well fitted activation curve with a large enough effect; inconclusive means small, poorly fitted or top-dose-only effect; inactive means no such curve, though single readings can be large or run the other way.

biological target: Cellular tumor antigen p53 (Homo sapiens) (UniProt P04637); assay: Primary qHTS for small molecule compounds that upregulate eGFP-tagged delta133p53alpha (in N-terminal) cells. (AID 2060322); details: NCI-H358 eGFP-delta133p53alpha fluorescence, 24 h; activation: hits give high values;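 further: cells pre-induced with doxycycline then dosed without doxycycline; nearly all actives have a fitted effect of over 75% in size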;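 on activation: series mostly up to about 56 µM; 0% = DMSO vehicle and 100% = reference activator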
Procedure, shortened: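 NCI-H358 cells pre-induced 24 h with 10 ng/ml doxycycline for eGFP-delta133p53alpha, plated dox-free and exposed 24 h at 37C to titrated compounds. Fixed, Hoechst-stained; gated GFP peak intensity by laser scanning cytometry, normalized to DMSO (0%) and 57.5 uM 5-azacytidine (100%).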
Potency means the concentration at half of the fitted maximal effect; tags describe the fitted curve by direction and shape.

Chain of UniProt P04637 (P04637 whole entry, looked up): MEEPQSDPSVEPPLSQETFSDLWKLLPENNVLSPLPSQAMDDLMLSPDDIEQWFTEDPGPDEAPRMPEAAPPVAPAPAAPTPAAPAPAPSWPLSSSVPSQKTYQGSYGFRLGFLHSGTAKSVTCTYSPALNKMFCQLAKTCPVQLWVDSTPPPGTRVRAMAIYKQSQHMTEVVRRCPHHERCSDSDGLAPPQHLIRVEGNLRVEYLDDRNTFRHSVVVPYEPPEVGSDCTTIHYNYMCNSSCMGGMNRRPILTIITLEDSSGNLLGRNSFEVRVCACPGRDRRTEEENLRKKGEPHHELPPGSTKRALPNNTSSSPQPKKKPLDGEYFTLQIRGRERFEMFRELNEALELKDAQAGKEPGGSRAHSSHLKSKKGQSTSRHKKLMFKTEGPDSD

**Q.** How did the activation turn out when `CP(=O)(O)C1=CCNCC1` was run?
**A.** inactive: -37.6%

**Q.** How did the activation turn out when `CN[C@H]1[C@H](O)[C@H](O[C@@H]2[C@@H](O)[C@H](O[C@H]3O[C@H]([C@H](C)O)[C@@H](O)[C@H](O)[C@H]3N)[C@@H](N)C[C@H]2N)OC[C@@]1(C)O` was run?
**A.** inactive: -4.3%

**Q.** Which Potency does the source give for `COc1ccccc1CN[C@H]1C2CCN(CC2)[C@H]1C(c1ccccc1)c1ccccc1` here?
**A.** inconclusive: 33.8 µM [activator, single point]

**Q.** For `CNc1ccc2oc(C[C@H]3O[C@@]4(CC[C@H]3C)O[C@H](C(C)C(=O)c3ccc[nH]3)[C@H](C)C[C@H]4C)nc2c1C(=O)O` (stereo partly drawn), which Potency is on record?
**A.** active: 19 µM

**Q.** How did the Potency turn out when `C[C@@H]1C[C@@H](O)[C@]2(O)O[C@@H]3C[C@@]4(C=O)C(CC[C@@H]5C4CC[C@]4(C)[C@@](O)(C6=CC(=O)OC6)CC[C@]54O)C[C@H]3OC2O1` (stereo partly drawn) was run?
**A.** inconclusive: 5.86 µM [activator, partial curve, poor fit]

**Q.** Which Potency does the source give for `CC(=O)O[C@H]1C(=O)[C@]2(C)C(O)C[C@H]3OC[C@@]3(OC(C)=O)[C@H]2[C@H](OC(=O)c2ccccc2)[C@]2(O)C[C@H](O)C(C)=C1C2(C)C` (stereo partly drawn) here?
**A.** inconclusive: 12.6 µM [activator, single point]

**Q.** `CCCCCOc1cc2c(cc1-c1cc(/C=C/C(=O)O)ccc1O)C(C)(C)CCC2(C)C` was tested. Which Potency did it give?
**A.** inconclusive: 26.9 µM [activator, single point]

**Q.** With `C[C@@H]1O[C@@H](OC2CCC3(C=O)C(CCC4C3CCC3(C)C(C5=CC(=O)OC5)C(O)CC43O)C2)[C@H](O)[C@H](O)[C@H]1O[C@@H]1O[C@H](CO)[C@@H](O)[C@H](O)[C@H]1O` (stereo partly drawn) as the molecule, how does the Potency read?
**A.** inconclusive: 2.51 µM [activator, partial curve]
